# Screen size: about 310,000 compounds; about 2,200 (0.71%) showed an effect of 50% or more. The effect is printed as a negative number. The list shows a part of the results.
# Target: human ether-à-go-go-related gene (hERG) potassium channel (human, UniProt Q12809)
# Assay: primary screen, population patch clamp on CHO cells stably expressing hERG
# Chain of human ether-à-go-go-related gene (hERG) potassium channel (Q12809 whole entry, looked up): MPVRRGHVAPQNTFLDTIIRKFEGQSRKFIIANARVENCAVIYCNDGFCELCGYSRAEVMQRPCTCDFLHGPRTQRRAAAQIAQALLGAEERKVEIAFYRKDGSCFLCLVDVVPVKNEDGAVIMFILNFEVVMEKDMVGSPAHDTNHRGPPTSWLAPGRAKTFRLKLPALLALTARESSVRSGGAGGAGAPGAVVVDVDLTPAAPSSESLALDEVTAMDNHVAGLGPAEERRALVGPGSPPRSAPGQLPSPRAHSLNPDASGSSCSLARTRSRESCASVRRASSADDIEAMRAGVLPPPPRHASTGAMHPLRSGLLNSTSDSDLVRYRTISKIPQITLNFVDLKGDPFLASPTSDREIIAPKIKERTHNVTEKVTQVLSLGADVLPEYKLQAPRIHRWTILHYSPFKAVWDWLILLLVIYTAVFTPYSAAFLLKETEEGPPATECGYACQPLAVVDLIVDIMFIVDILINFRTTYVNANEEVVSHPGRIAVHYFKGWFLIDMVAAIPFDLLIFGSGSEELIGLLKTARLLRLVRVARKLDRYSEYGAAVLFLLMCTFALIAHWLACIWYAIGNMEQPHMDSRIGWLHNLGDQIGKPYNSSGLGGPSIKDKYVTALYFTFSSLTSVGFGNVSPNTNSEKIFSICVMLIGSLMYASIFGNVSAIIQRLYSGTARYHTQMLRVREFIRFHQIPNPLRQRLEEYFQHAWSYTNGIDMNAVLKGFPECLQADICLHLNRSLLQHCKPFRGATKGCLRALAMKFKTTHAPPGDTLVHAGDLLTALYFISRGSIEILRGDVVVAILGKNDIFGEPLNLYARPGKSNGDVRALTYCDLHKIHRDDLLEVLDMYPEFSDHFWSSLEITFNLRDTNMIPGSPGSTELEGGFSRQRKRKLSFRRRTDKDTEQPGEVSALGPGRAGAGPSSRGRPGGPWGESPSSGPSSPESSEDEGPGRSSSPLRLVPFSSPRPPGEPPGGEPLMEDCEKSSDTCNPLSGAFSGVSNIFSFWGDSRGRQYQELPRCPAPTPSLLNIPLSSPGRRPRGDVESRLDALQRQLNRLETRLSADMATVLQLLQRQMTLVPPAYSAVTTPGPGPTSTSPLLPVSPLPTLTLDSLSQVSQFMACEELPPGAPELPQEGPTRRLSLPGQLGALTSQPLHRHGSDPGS
row,SMILES,"hERG current change (%, negative = inhibition) at 1uM"
1,COc1ccc(C(=O)Nc2nc3ccc(OC)cc3s2)cc1,10.5%
2,COc1ccc2c(c1)O[C@@H](c1cccc(C(F)(F)F)c1)[C@H](OC(=O)NCCc1ccc(OC)c(OC)c1)C2=O,0.208%
3,COc1cc(C(=O)Nc2nnc(CC(=O)N3CCOCC3)s2)cc(OC)c1OC,4.85%
4,O=C(c1ccc(CS(=O)c2cccc(Cl)c2)o1)N1CCOCC1 (stereo not shown),18.9%
5,Cc1n[nH]c(C)c1S(=O)(=O)N1CCOCC1,8.7%
6,O=C(CN1CCN(Cc2ccccc2)CC1)Nc1ccc(Cl)cc1,-32.3%
7,CCc1c(-c2ccccc2)nc2nc(C)c(C)nn12,8.9%
8,Cc1ccc(-n2[nH]c(C)c(/C=N/n3c(C)nc4ccccc4c3=O)c2=O)cc1,2.74%
9,Cn1c(=O)c2cc(S(=O)(=O)NCCC(=O)Nc3ccc(F)cc3F)ccc2n(C)c1=O,3.85%
10,COc1ccc(NC(C)=O)cc1S(=O)(=O)NC(Cc1ccccc1)C(=O)NCc1ccccc1C (stereo not shown),2.24%
11,CC(C)(C)NC(=O)c1nc2ccccc2s1,9.66%
12,Cc1ccc(S(=O)(=O)NN2C(=O)c3ccccc3NC2(C)C)cc1,4.79%
13,COc1ccc(OC)c(NC(=O)CSc2nc(C)cs2)c1,-10.6%
14,Cc1ccn2c(/C=N/OCc3ccc(F)cc3)c(-c3ccc(Cl)cc3)nc2c1,6.35%
15,CC1CCCN(CCCNS(=O)(=O)c2cc(Br)cc3c2N(C(=O)C2CC2)CC3)C1 (stereo not shown),12.2%
16,CCn1cc(C(=O)N[C@@H](C)C(=O)NCCCN2CCOCC2)c(=O)c2cc3c(cc21)OCO3,18.9%
17,O=C(NC1CCCCCCC1)C1CCCN(S(=O)(=O)c2cnc[nH]2)C1 (stereo not shown),15.9%
18,O=C(NCc1cccnc1)c1ccc2c(c1)N(Cc1ccccc1)CCS2,4.52%
19,Cc1ccc(-c2noc(CN3CCN(C(c4ccccc4)c4ccccc4)CC3)n2)cc1,17%
20,Cn1cc(C(=O)C(=O)NCCc2ccccc2)c2ccccc21,10.3%
21,COc1ccc2c(c1)C(=O)CC(c1ccc(OC)c(OC)c1)O2 (stereo not shown),11.5%
22,CCC(C(=O)Nc1ccc(C(=O)Nc2ccccc2C(=O)O)cc1)c1ccccc1 (stereo not shown),17.6%

row,SMILES,"hERG current change (%, negative = inhibition) at 1uM"
1,O=C(COc1ccccc1Cl)Nn1cnnc1,17.3%
2,COc1cc2c(cc1OC)C(c1cccs1)N(C(=O)c1ccc(S(=O)(=O)N(C)C)cc1)CC2 (stereo not shown),-38.4%
3,COc1ccccc1NC(=O)c1cc2c(CO)cnc(C)c2oc1=Nc1cc(OC)c(OC)c(OC)c1,11.2%
4,COC(=O)C1=C(C(=O)OC)[C@@H]2Nc3ccccc3[C@@]23C[C@@H](C(=O)OC)N(C(=O)c2cc(C)oc2C)C3=N1,22.7%
5,Cc1cc(=O)oc2cc(OCC(=O)N3CCN(c4ccc(F)cc4)CC3)c(Cl)cc12,12.5%
6,O=C(COC(=O)c1ccccn1)Nc1cc(Cl)ccc1Cl,12%
7,Cc1ccc(C(=O)NCCNS(C)(=O)=O)cc1,2.85%
8,Cc1ccc(-n2nc3c(=O)n(C(C)C(=O)NCc4ccccc4Cl)nc(C)c3c2C)cc1 (stereo not shown),6.63%
9,Cc1ccc(C)c(NS(=O)(=O)c2ccc3oc(=O)ccc3c2)c1,7.94%
10,O=C(Cc1cccs1)NCc1cn2ccccc2n1,8.86%
11,O=C(OCCOc1ccc(Br)cc1)c1cnccn1,-2.31%
12,COCCC(=O)N1CCCC(C(=O)c2ccc(Oc3ccccc3)cc2)C1 (stereo not shown),-37%
13,O=C(/C(=C(\O)c1ccccc1)c1nc2ccccc2[nH]1)c1ccccc1,2.7%
14,COCCCNC(=S)N(Cc1ccccc1)Cc1ccccc1,10.6%
15,COc1ccc(C2c3ccc4ccccc4c3Oc3ncn(CCN4CCOCC4)c(=N)c32)cc1OC (stereo not shown),10.9%
16,CN(C)c1nc(N)nc(-c2nc3ccccc3s2)n1,-2.08%
17,O=C(CSc1ccsc1[N+](=O)[O-])N1CCN(c2ccccn2)CC1,11.5%
18,O=C(Nc1cc(S(=O)(=O)N2CCCCC2)ccc1O)c1ccccc1NS(=O)(=O)c1ccc(F)c(F)c1,4.15%
19,O=C(c1ccco1)N1CCN(C(=O)C2CCCN(S(=O)(=O)c3cccc4nsnc34)C2)CC1 (stereo not shown),5.75%
20,N#Cc1c(-c2ccccc2)[nH]c(=O)[nH]c1=O,13.6%
21,O=C(Nc1cccc(NC(=O)c2cccs2)c1)c1ccc2c(c1)OCO2,-0.492%
22,Cc1cc2n(n1)SC(Nc1cccc3ccccc13)N2 (stereo not shown),-8.91%

row,SMILES,"hERG current change (%, negative = inhibition) at 1uM"
1,COc1ccc(-n2ncc3c2CC(C)(C)CC3NC(=O)c2ocnc2C)cc1 (stereo not shown),-12.9%
2,CCCCN(CCCC)CCNC(=O)c1cn(CC)c2ccc(S(=O)(=O)N(C)C3CCCCC3)cc2c1=O,-84.2%
3,COc1ccccc1OCc1nnc(SCC(=O)NCc2ccco2)n1Cc1ccco1,-2.19%
4,COc1ccc(OC)c(C(=O)COC(=O)c2c(OC)cccc2OC)c1,6.21%
5,Cc1cc(S(=O)(=O)N2CCOCC2)ccc1OCC(=O)Nc1ccc(F)c(Cl)c1,17.7%
6,COC(=O)CN(C)C(=O)c1ccc2nc(Cc3cccc(Cl)c3)oc2c1,23.7%
7,O=C(COc1ccc(Br)cc1CNCCCN1CCOCC1)Nc1ccccc1,-11.3%
8,CCCCNC(=S)N(Cc1ccco1)Cc1cc2cc3c(cc2[nH]c1=O)OCCO3,11.8%
9,O=C(CCn1cccc1)Nc1ccc(F)cc1,-3.51%
10,CCN(CC)CC(=O)Nc1nc(-c2ccc(Cl)cc2)cs1,5.31%
11,CCCC(C(=O)NCCC(C)C)N(Cc1ccccc1)C(=O)c1snc(C(N)=O)c1N (stereo not shown),18.1%
12,O=Cc1cn[nH]c1-c1ccccc1,18.8%
13,O=C1/C(=C\c2cccc(O)c2O)SC(=S)N1Cc1ccccc1,12.6%
14,COc1ccc(N(CC(=O)NCc2ccc(F)cc2)C(=O)CCC(=O)Nc2ccccn2)cc1,5%
15,Cc1sc2nc(COC(=O)Cc3ccccc3)[nH]c(=O)c2c1C,4.02%
16,Cc1cccc(-c2nc3sc(C)cc3c(=O)o2)c1,28.8%
17,CCOC(=O)CN(C(=O)CN1CCC(n2nnc3cc(C)ccc32)CC1)c1ccccc1,-23.3%
18,NC(=O)C1(N2CCCCC2)CCN(CC(=O)Nc2cc(Cl)ccc2Cl)CC1,-55.3%
19,CC(C)NC(=O)C(=O)NCCC1CCCCN1S(=O)(=O)c1cccs1 (stereo not shown),8.63%
20,CCC(C)Nc1nc(Cl)nc(N(C#N)CN2C(=O)c3ccccc3S2(=O)=O)n1 (stereo not shown),12%
21,Cc1ccc(S(=O)(=O)N2CCC(C(=O)Nc3ccc4c(c3)OCO4)CC2)cc1,-1.17%
22,CCCOc1c(Cl)cc(C(=O)NC)cc1OC,13%

row,SMILES,"hERG current change (%, negative = inhibition) at 1uM"
1,Cc1cccc(Cc2nnc(CCC(=O)N(CC3CC3)CC3CCCO3)o2)c1 (stereo not shown),11.6%
2,CC(NC(=O)C1CCN(S(=O)(=O)c2ccc3nc4c(c(C(=O)O)c3c2)CCCC4)CC1)c1ccccc1 (stereo not shown),5.92%
3,CC(C)(C)NC(=O)CN(CC1CCCO1)C(=O)CNS(=O)(=O)c1ccc(F)cc1 (stereo not shown),21.7%
4,Cc1cccc(COc2ccc(/C=N/NC(=O)c3nnn(-c4nonc4N)c3COc3ccc(F)cc3)cc2)c1,8.97%
5,CC1(C)CC(=O)C/C(=N/NC(=O)COc2ccc3ccccc3c2Br)C1,8.33%
6,COc1ccc(CCC(C)NCc2ccc(C(F)(F)F)cc2)cc1 (stereo not shown),-22.6%
7,O=C(CSc1nc(-c2cccs2)cc(C(F)(F)F)n1)Nc1cc(OCC(F)(F)F)cc([N+](=O)[O-])c1,18.9%
8,Cl.O=C(c1ccco1)N1CCN(Cc2nnnn2CCc2ccccc2)CC1,-5.12%
9,CC(=O)N1N=C(c2cccs2)CC1c1ccc(Br)cc1 (stereo not shown),13%
10,Cc1ccc(NC(=O)CSc2nc(=O)n3cc(C)ccc3n2)c(C)c1,4.38%
11,COC(=O)c1cc(CSc2nnc(NC3CCCCC3)s2)oc1C,10.5%
12,Cc1cc(OCC(=O)N2CCC(C(=O)O)CC2)c2c3c(c(=O)oc2c1)CCCC3,-5.74%
13,COc1ccccc1C(=O)NCC(=O)OCc1ccc(Br)cc1,7.38%
14,CC/C(=N\O)c1c(O)c2c(n(-c3ccccc3)c1=O)CCCC2,8.93%
15,CCOc1ccccc1Nc1nc2ccccc2n1C(C)C,11.5%
16,CN1CCN(C(=O)c2ccc(S(=O)(=O)Nc3ccccc3)cc2)CC1.Cl,-1.71%
17,Cc1ccc(NC(=O)CN2C(=O)CN=C(c3ccccc3)c3cc(Cl)ccc32)cc1,9.95%
18,C/C(=N\NC(=O)c1cccnc1)c1cc(C)oc1C,11.7%
19,COc1ccc(CC(=O)N2CCC(Nc3nc4ccccc4n3Cc3ccc(F)cc3)CC2)cc1,-36.8%

# From publication PMC4336329 (PLoS ONE, 2015)
